# The other results are listed elsewhere or left out.
# B1: PpFlo1 (Pichia pastoris) (protein)
# chain: MGSSHHHHHHSSGLVPRGSHMQESGDGDISDSAYACDIDATRYDGFNATIYEFQPGDGRLTRDPVFMSTGYLNRTQLHSITGVTDPGFSIYTPGVPTTTLYGIPNVNWENLLLELKGYFRAEVSGDYGLSLRNIDDSAILFFGKETAFQCCNENSISNEASTDYSLFTIFRQEGDETTNLDSFTYTQYLEAGKYYPVRTFFVNIERHAVFNFTMTLPDGTELTDFHNYIYQFGALDEEQCQA
# How the values were obtained:
# Assay in all cases: glycan array binding signal (z-score within array); higher = stronger binding
# Settings in all cases: glycan notation: IUPAC condensed, linker removed
# [1] = biological target: Neu5Ac(a2-3)Gal(b1-3)GalNAc(b1-4)[Neu5Ac(a2-3)]Gal(b1-4)Glc
# Method in brief: (§1)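 The binding signal is a Z-score computed within each array. Data were drawn from 3228 arrays in the Consortium for Functional Glycomics database, restricted to those with a known protein sequence. Scores were averaged over arrays of the same protein sequence at different concentrations or buffers, and over linkers, and negative values can be taken as non-binding.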
# [2] = biological target: Neu5Ac(a2-3)Gal(b1-3)GalNAc(b1-4)[Neu5Ac(a2-8)Neu5Ac(a2-3)]Gal(b1-4)Glc
# Method in brief: as §1
# [3] = biological target: Neu5Ac(a2-3)Gal(b1-3)GalNAc6S
# Method in brief: as §1
# [4] = biological target: Neu5Ac(a2-3)Gal(b1-3)GlcNAc
# Method in brief: as §1
# [5] = biological target: Neu5Ac(a2-3)Gal(b1-3)GlcNAc(b1-2)Man
# Method in brief: as §1
# [6] = biological target: Neu5Ac(a2-3)Gal(b1-3)GlcNAc(b1-2)Man(a1-3)[GlcNAc(b1-4)][Neu5Ac(a2-3)Gal(b1-3)GlcNAc(b1-2)Man(a1-6)]Man(b1-4)GlcNAc(b1-4)GlcNAc
# Method in brief: as §1
# [7] = biological target: Neu5Ac(a2-3)Gal(b1-3)GlcNAc(b1-2)Man(a1-3)[Neu5Ac(a2-3)Gal(b1-3)GlcNAc(b1-2)Man(a1-6)]Man(b1-4)GlcNAc(b1-4)GlcNAc
# Method in brief: as §1
# [8] = biological target: Neu5Ac(a2-3)Gal(b1-3)GlcNAc(b1-3)Gal(b1-3)GlcNAc
# Method in brief: as §1
# [9] = biological target: Neu5Ac(a2-3)Gal(b1-3)GlcNAc(b1-3)Gal(b1-4)GlcNAc
# Method in brief: as §1
# [10] = biological target: Neu5Ac(a2-3)Gal(b1-3)GlcNAc(b1-3)GalNAc
# Method in brief: as §1
# [11] = biological target: Neu5Ac(a2-3)Gal(b1-3)GlcNAc(b1-4)Gal(b1-4)Glc
# Method in brief: as §1
# [12] = biological target: Neu5Ac(a2-3)Gal(b1-3)GlcNAc(b1-6)GalNAc
# Method in brief: as §1
# [13] = biological target: Neu5Ac(a2-3)Gal(b1-3)GlcNAc6S
# Method in brief: as §1
# [14] = biological target: Neu5Ac(a2-3)Gal(b1-3)[Fuc(a1-4)]GlcNAc
# Method in brief: as §1
# [15] = biological target: Neu5Ac(a2-3)Gal(b1-3)[Fuc(a1-4)]GlcNAc(b1-3)Gal(b1-3)[Fuc(a1-4)]GlcNAc
# Method in brief: as §1
# [16] = biological target: Neu5Ac(a2-3)Gal(b1-3)[Fuc(a1-4)]GlcNAc(b1-3)Gal(b1-4)[Fuc(a1-3)]GlcNAc
# Method in brief: as §1
# [17] = biological target: Neu5Ac(a2-3)Gal(b1-3)[GlcNAc(b1-6)]GalNAc
# Method in brief: as §1
# [18] = biological target: Neu5Ac(a2-3)Gal(b1-3)[Neu5Ac(a2-3)Gal(b1-4)]GlcNAc
# Method in brief: as §1
# [19] = biological target: Neu5Ac(a2-3)Gal(b1-3)[Neu5Ac(a2-6)]GalNAc
# Method in brief: as §1
# [20] = biological target: Neu5Ac(a2-3)Gal(b1-3)[Neu5Ac(a2-6)]GlcNAc(b1-3)[Fuc(a1-3)[Gal(b1-4)]GlcNAc(b1-6)]Gal(b1-4)Glc
# Method in brief: as §1
# [21] = biological target: Neu5Ac(a2-3)Gal(b1-3)]Neu5Ac(a2-3)Gal(b1-4)]GlcNAc
# Method in brief: as §1
# Neu5Ac(a2-3)Gal(b1-4)Glc = biological target: Neu5Ac(a2-3)Gal(b1-4)Glc
# Method in brief: as §1
# [22] = biological target: Neu5Ac(a2-3)Gal(b1-4)GlcNAc
# Method in brief: as §1
# [23] = biological target: Neu5Ac(a2-3)Gal(b1-4)GlcNAc(b1-2)Man
# Method in brief: as §1
# [24] = biological target: Neu5Ac(a2-3)Gal(b1-4)GlcNAc(b1-2)Man(a1-3)[GlcNAc(b1-2)Man(b1-4)GlcNAc(b1-2)Man(a1-6)]Man(b1-4)GlcNAc(b1-4)GlcNAc
# Method in brief: as §1
# [25] = biological target: Neu5Ac(a2-3)Gal(b1-4)GlcNAc(b1-2)Man(a1-3)[GlcNAc(b1-4)][Neu5Ac(a2-3)Gal(b1-4)GlcNAc(b1-2)Man(a1-6)]Man(b1-4)GlcNAc(b1-4)GlcNAc
# Method in brief: as §1
# [26] = biological target: Neu5Ac(a2-3)Gal(b1-4)GlcNAc(b1-2)Man(a1-3)[Neu5Ac(a2-3)Gal(b1-4)GlcNAc(b1-2)Man(a1-6)]Man(b1-4)GlcNAc(b1-4)GlcNAc
# Method in brief: as §1
# [27] = biological target: Neu5Ac(a2-3)Gal(b1-4)GlcNAc(b1-2)Man(a1-3)[Neu5Ac(a2-3)Gal(b1-4)GlcNAc(b1-2)Man(a1-6)]Man(b1-4)GlcNAc(b1-4)[Fuc(a1-6)]GlcNAc
# Method in brief: as §1
# [28] = biological target: Neu5Ac(a2-3)Gal(b1-4)GlcNAc(b1-2)Man(a1-3)[Neu5Ac(a2-6)Gal(b1-4)GlcNAc(b1-2)Man(a1-6)]Man(b1-4)GlcNAc(b1-4)GlcNAc
# Method in brief: as §1
# [29] = biological target: Neu5Ac(a2-3)Gal(b1-4)GlcNAc(b1-2)[Neu5Ac(a2-3)Gal(b1-4)GlcNAc(b1-4)]Man(a1-3)[GlcNAc(b1-4)][Neu5Ac(a2-3)Gal(b1-4)GlcNAc(b1-2)[Neu5Ac(a2-3)Gal(b1-4)GlcNAc(b1-6)]Man(a1-6)]Man(b1-4)GlcNAc(b1-4)GlcNAc
# Method in brief: as §1
# [30] = biological target: Neu5Ac(a2-3)Gal(b1-4)GlcNAc(b1-2)[Neu5Ac(a2-3)Gal(b1-4)GlcNAc(b1-4)]Man(a1-3)[GlcNAc(b1-4)][Neu5Ac(a2-3)Gal(b1-4)GlcNAc(b1-4)Man(a1-6)]Man(b1-4)GlcNAc(b1-4)GlcNAc
# Method in brief: as §1
# [31] = biological target: Neu5Ac(a2-3)Gal(b1-4)GlcNAc(b1-2)[Neu5Ac(a2-3)Gal(b1-4)GlcNAc(b1-6)]Man(a1-6)[Neu5Ac(a2-3)Gal(b1-4)GlcNAc(b1-2)Man(a1-3)]Man(b1-4)GlcNAc(b1-4)GlcNAc
# Method in brief: as §1
# [32] = biological target: Neu5Ac(a2-3)Gal(b1-4)GlcNAc(b1-2)[Neu5Ac(a2-3)Gal(b1-4)GlcNAc(b1-6)]Man(a1-6)[Neu5Ac(a2-3)Gal(b1-4)GlcNAc(b1-2)Man(a1-3)][GlcNAc(b1-4)]Man(b1-4)GlcNAc(b1-4)GlcNAc
# Method in brief: as §1
# [33] = biological target: Neu5Ac(a2-3)Gal(b1-4)GlcNAc(b1-3)Gal
# Method in brief: as §1
# [34] = biological target: Neu5Ac(a2-3)Gal(b1-4)GlcNAc(b1-3)Gal(b1-3)GlcNAc
# Method in brief: as §1
# [35] = biological target: Neu5Ac(a2-3)Gal(b1-4)GlcNAc(b1-3)Gal(b1-4)GlcNAc
# Method in brief: as §1
# [36] = biological target: Neu5Ac(a2-3)Gal(b1-4)GlcNAc(b1-3)Gal(b1-4)GlcNAc(b1-2)Man(a1-3)[Neu5Ac(a2-3)Gal(b1-4)GlcNAc(b1-3)Gal(b1-4)GlcNAc(b1-2)Man(a1-6)]Man(b1-4)GlcNAc(b1-4)GlcNAc
# Method in brief: as §1
# [37] = biological target: Neu5Ac(a2-3)Gal(b1-4)GlcNAc(b1-3)Gal(b1-4)GlcNAc(b1-3)Gal(b1-4)GlcNAc
# Method in brief: as §1
binder,measurement,setting,value
B1,glycan array binding signal (z-score),[1],-0.041
same,glycan array binding signal (z-score),[2],-0.125
same,glycan array binding signal (z-score),[3],-0.417
same,glycan array binding signal (z-score),[4],0.371
same,glycan array binding signal (z-score),[5],-0.182
same,glycan array binding signal (z-score),[6],-0.247
same,glycan array binding signal (z-score),[7],-0.67
same,glycan array binding signal (z-score),[8],-0.308
same,glycan array binding signal (z-score),[9],-0.018
same,glycan array binding signal (z-score),[10],-0.532
same,glycan array binding signal (z-score),[11],0.686
same,glycan array binding signal (z-score),[12],-0.067
same,glycan array binding signal (z-score),[13],-0.158
same,glycan array binding signal (z-score),[14],0.881
same,glycan array binding signal (z-score),[15],-0.296
same,glycan array binding signal (z-score),[16],-0.228
same,glycan array binding signal (z-score),[17],-0.516
same,glycan array binding signal (z-score),[18],-0.257
same,glycan array binding signal (z-score),[19],0.465
same,glycan array binding signal (z-score),[20],-0.201
same,glycan array binding signal (z-score),[21],-0.058
same,glycan array binding signal (z-score),Neu5Ac(a2-3)Gal(b1-4)Glc,-0.357
same,glycan array binding signal (z-score),[22],-0.203
same,glycan array binding signal (z-score),[23],0.014
same,glycan array binding signal (z-score),[24],-0.491
same,glycan array binding signal (z-score),[25],-0.44
same,glycan array binding signal (z-score),[26],-0.456
same,glycan array binding signal (z-score),[27],0.115
same,glycan array binding signal (z-score),[28],-0.44
same,glycan array binding signal (z-score),[29],-0.162
same,glycan array binding signal (z-score),[30],-0.022
same,glycan array binding signal (z-score),[31],0.699
same,glycan array binding signal (z-score),[32],-0.37
same,glycan array binding signal (z-score),[33],-0.31
same,glycan array binding signal (z-score),[34],-0.004
same,glycan array binding signal (z-score),[35],0.707
same,glycan array binding signal (z-score),[36],-0.19
same,glycan array binding signal (z-score),[37],-0.374

# Reference: the supplement of paper PMC8728848
